Test results: PubChem BioAssay AID1347417 (National Center for Advancing Translational Sciences (NCATS), 2020)
The campaign covered roughly 120,000 compounds. About 5,300 (4.4%) were called active. Inconclusive means that the source gave no clear call. Such entries were picked first, then a sample of the others. Calls come from the whole dose curve; as a rule, active = well fitted inhibition curve with a large enough effect; inconclusive = small, poorly fitted or top-dose-only effect; inactive = no such curve, though single readings can be large or run the other way. A potency beside an inconclusive call is a rough fit, not a confirmed value.

Test: qHTS Primary assay for Inhibitors of Plasmodium falciparum Dd2 growth in vitro; note: nearly all actives have a fitted effect of over 65% in size
Conditions: P. falciparum Dd2 growth, SYBR Green, 72 h; series mostly up to 28.9 µM
Procedure, shortened: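 Infected erythrocytes (Dd2, 0.3% parasitemia, 2.5% hematocrit final) are added to compound in RPMI-1640/Albumax II medium, grown 72 h at 37C in low oxygen, then lysed with saponin/Triton-X containing SYBR Green and read by fluorescence.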
Potency is the fitted concentration of half-maximal effect; tags give direction and shape of the fitted curve.

| Structure (SMILES) | Potency |
| --- | --- |
| Cc1cc(C)n2ncc(CN3CCCC3c3nc(-c4ccncc4)no3)c2n1 (stereo not given) | inconclusive: 8.91 µM [inhibitor, partial curve, poor fit] |
| COCc1nc(C2CCCN(C(=O)COc3ccc(F)cc3)C2)no1 (stereo not given) | inconclusive: 11.2 µM [inhibitor, single point] |
| Cn1c(=O)c(=O)n(C)c2cc(NC(=O)c3cccc(F)c3)c(Cl)cc21 | inconclusive: 17.8 µM [inhibitor, single point] |
| CCCN1C(=O)Cc2cc(C(=O)NCc3ccc(F)cc3F)ccc21 | inconclusive: 3.16 µM [inhibitor, full curve, poor fit] |
| CCCCCn1cc2c(c1-c1ccc(Br)cc1)c(=O)n(C)c(=O)n2C | inconclusive: 15.8 µM [inhibitor, single point] |
| COc1ccc(Nc2cnc3ccc(-c4ccc(F)cc4)nn23)cc1 | inconclusive: 2.51 µM [inhibitor, full curve, poor fit] |
| COC(=O)c1ccc2nc(C[C@@H]3C[C@@H](C(C)C)[C@H](CNC(=O)c4ccccc4)C=C3C)[nH]c2c1 | active: 8.91 µM |
| C#CCNC(=O)C[C@@H]1CCN(C(=O)CCCCC)C[C@@H]1CC | inactive |
| O=C(Cn1c(=O)oc2cc(Cl)ccc21)Nc1cccc(C(F)(F)F)c1 | inconclusive: 17.8 µM [inhibitor, partial curve, poor fit] |
| CCS(=O)(=O)c1ncc(N(Cc2ccccc2)Cc2ccco2)c(C(=O)Nc2ccc(C)c(C)c2)n1 | active: 5.01 µM |
| CCn1c(NCc2ccc(OC)cc2)nc2ccccc21 | inconclusive: 8.91 µM [inhibitor, single point] |
| CCOc1ccc(NC(=O)c2ccc3c(=O)n4nc(Nc5ccccc5C)sc4nc3c2)cc1 | inconclusive: 17.8 µM [inhibitor, single point] |
| COc1ccccc1-c1nc(C(=O)NCc2ccc(F)cc2)n2ccccc12 | inconclusive: 11.2 µM [inhibitor, single point] |
| COc1ccc(CCNC(=O)CCCCn2c(=O)c3ccccc3n(Cc3ccccc3C)c2=O)cc1OC | inconclusive: 10 µM [inhibitor, partial curve, poor fit] |
| Cc1ccc(CC(=O)NC2CCN(c3cc(-c4ccc(F)cc4)[nH]n3)C2)cc1 (stereo not given) | inconclusive: 12.6 µM [inhibitor, single point] |
| O=C(Nc1cccc2ccccc12)O[C@@H]1CO[C@H]2[C@@H]1OC[C@@H]2NCC1CCCCC1 | inconclusive: 10 µM [inhibitor, partial curve, poor fit] |
| Cc1ccccc1NC(=O)N1CCc2c(sc3c2CCCC3)C1c1ccccc1 (stereo not given) | inconclusive: 10 µM [inhibitor, single point] |
| COc1ccccc1Cc1nc(-c2nnn3c2COC(c2ccc(C)cc2)C3)no1 (stereo not given) | active: 7.94 µM |
| CC[C@H](C)[C@H](N)C(=O)N1CCC2(CCC(=O)N(Cc3ccccc3)C2)CC1 | inactive |
| Cc1ccccc1NC(=O)N1CCCC(c2noc(COc3ccccc3)n2)C1 (stereo not given) | inconclusive: 7.94 µM [inhibitor, partial curve, poor fit] |

| Structure (SMILES) | Potency |
| --- | --- |
| CC(=O)N[C@@H]1C=C(C(=O)NCCC(N)=O)C[C@@H](O)[C@@H]1O | inconclusive: 22.4 µM [inhibitor, partial curve, poor fit] |
| O=C(N[C@H]1CO[C@H]2[C@@H]1OC[C@@H]2n1cc(-c2ccccc2)nn1)c1ccc(C(F)(F)F)cc1 | inconclusive: 0.891 µM [inhibitor, full curve, poor fit] |
| COc1cc(/C=C(\C#N)c2nc3ccccc3[nH]2)cc(Cl)c1OCc1ccccc1Cl | inconclusive: 1.78 µM [inhibitor, full curve, poor fit] |
| COc1ccc(C(C)NC(=O)c2ccc(Cn3ccn4nc5c(c4c3=O)CCCC5)cc2)cc1 (stereo not given) | inconclusive: 17.8 µM [inhibitor, single point] |
| O=C1CCN(C(=O)COc2ccc(F)cc2)CCCC(c2nc(-c3cccnc3)no2)CCN1 (stereo not given) | inconclusive: 2.82 µM [inhibitor, single point] |
| COc1ccccc1CC(=O)N1CCN(C(=O)c2nnn3c2COC(c2ccc(C)cc2)C3)CC1 (stereo not given) | inconclusive: 12.6 µM [inhibitor, single point] |
| CN1CCN(C(=O)c2ccc(-c3nnc4ccc(NC(=O)C5CCC5)cn34)cc2)CC1 | inconclusive: 1.78 µM [inhibitor, partial curve, poor fit] |
| CNC(=O)c1cc(-c2cnc(OC)nc2)cc2c1OCCN2Cc1cccnc1 | inconclusive: 11.2 µM [inhibitor, single point] |
| CCCCc1nn2c(=O)cc(COC(=O)c3cccc(NC(=O)CCc4ccccc4)c3)nc2s1 | inconclusive: 3.98 µM [inhibitor, single point] |
| CCS(=O)(=O)N1C[C@@H](Oc2cccnc2)C[C@H]1C(=O)N1CCCC1 | inactive |
| CN(C)C(=O)c1cc2cccnn2n1 | inactive |
| Cc1ccc(-c2ccc(CN)cc2)c(C)c1 | inconclusive: 14.1 µM [inhibitor, single point] |
| Cc1noc([C@@H]2CN(C(=O)c3cc(C)oc3C)C[C@H]2COCC2CC2)n1 | inconclusive: 12.6 µM [inhibitor, single point] |
| CC(=O)N1CCN(c2nc3c(s2)CC(C(=O)Nc2ccc(F)c(Cl)c2)CC3)CC1 (stereo not given) | inconclusive: 1 µM [inhibitor, partial curve, poor fit] |
| Fc1ccc(C(NCCc2ccc(Cl)cc2)c2nnc(-c3ccccc3)o2)c(Cl)c1 (stereo not given) | inconclusive: 17.8 µM [inhibitor, single point] |
| O=C(c1nnn2c1COC(c1ccc(Cl)cc1)C2)N1CCN(C(=O)C2(c3ccccc3)CC2)CC1 (stereo not given) | inconclusive: 2.82 µM [inhibitor, single point] |
| CC(=O)NC1(C)CN(Cc2ccc(-c3ccccc3OCc3ccccc3)s2)C1 | inconclusive: 2.51 µM [inhibitor, partial curve, poor fit] |
| Cc1nn(-c2ccccc2)nc1C(=O)N[C@H](C)c1onc(-c2cccnc2)c1C(=O)O | inactive |
| CCCn1c2ccccc2c2cnn(CC(=O)NCCCN(CC)c3ccccc3)c(=O)c21 | inactive |
| COc1ccccc1-c1cc(C(=O)NCCc2ccc(Cl)cc2)nn2cccc12 | inactive |

| Structure (SMILES) | Potency |
| --- | --- |
| CC1CCc2c(sc3nnn(CC(=O)Nc4c(C(C)C)cccc4C(C)C)c(=O)c23)C1 (stereo not given) | inconclusive: 11.2 µM [inhibitor, single point] |
| O=C(C1CC1)N1CCC(N2C(=O)C3(CCCCC3)C2c2ccccc2)CC1 (stereo not given) | inconclusive: 17.8 µM [inhibitor, single point] |
| COc1ccc(C(=O)N2CC[C@H](c3nc4ccccc4n3C)C2)cc1OC | inactive |
| CC(C)NC(=O)C[C@@H]1C[C@H]2O[C@H](CNCc3ccccc3C(F)(F)F)[C@@H](O)[C@H]2O1 | inactive |
| COCC1CN(C2CCC2)CC12CCN(C(=O)c1ccccc1Cl)CC2 (stereo not given) | inconclusive: 8.91 µM [inhibitor, partial curve] |
| O=C1NCCCCCCN(Cc2ccncc2)[C@@H]2CN(Cc3ccc(O)cc3)CC[C@H]12 | inconclusive: 3.16 µM [inhibitor, partial curve, poor fit] |
| O=C(c1ccc2c(c1)N(Cc1c(F)cccc1Cl)C(=O)c1ccccc1S2)N1CCCC1 | inconclusive: 12.6 µM [inhibitor, single point] |
| COc1ccc(Cn2c(C(C)NC(=O)OCc3ccccc3)nc3cccnc32)cc1 (stereo not given) | inconclusive: 11.2 µM [inhibitor, single point] |
| Cc1cccc(C)c1NC(=O)CCCn1c(=O)c2cccn2c2ccccc21 | inconclusive: 3.98 µM [inhibitor, partial curve, poor fit] |
| CC1=C[C@@H](CNC(=O)c2cccnc2)[C@H](C(C)C)C[C@H]1CC(=O)NC1CCCC1 | inactive |
| Fc1ccc(-c2csc(=Nc3cccc(C(F)(F)F)c3)n2Cc2ccc3c(c2)OCO3)cc1 | inconclusive: 11.2 µM [inhibitor, single point] |
| COc1ccc(C2(C(=O)N3CCC(Cc4ccccc4)CC3)CCOCC2)cc1 | inactive |
| Cc1ccc(CCNC(=O)c2ccc3c(c2)N(Cc2ccccc2F)C(=O)c2ccccc2S3=O)cc1 (stereo not given) | inconclusive: 2.82 µM [inhibitor, partial curve, poor fit] |
| COc1ccc(Nc2ncc(-c3cnn(C)c3)c3c2OCC3)cc1 | inconclusive: 12.6 µM [inhibitor, single point] |
| Cc1ccc(C(=O)N(CC2CCN(Cc3ccccc3F)CC2)CC2CCCO2)s1 (stereo not given) | inconclusive: 10 µM [inhibitor, partial curve] |
| CCOC(=O)c1cc(-c2ccccc2)n(CC(=O)Nc2ccccc2OCC)c1C | inconclusive: 17.8 µM [inhibitor, single point] |
| COc1cc(F)ccc1-c1cc2c(ccn2CC2CCN(C)CC2)c(N2CCOCC2)n1 | inconclusive: 5.62 µM [inhibitor, single point] |
| O=C(Cn1c(-c2cccs2)cc2cc(F)ccc21)N1CCN(c2ccccc2)CC1 | inconclusive: 12.6 µM [inhibitor, single point] |
| O=c1[nH]c(N2CCOCC2)nc2c1CCN(Cc1cc(F)c(F)cc1F)CC2 | inconclusive: 0.794 µM [inhibitor, full curve, poor fit] |
| COc1cccc(C(=O)NC(C(=O)N2CCCCC2)C2CCN(C(=O)c3ccc(F)cc3)CC2)c1 (stereo not given) | inconclusive: 3.98 µM [inhibitor, single point] |
